# In the supplement of paper PMC10037445:
# Several values for one entry are separate records, joined by “and”; a condition that tells them apart may be missing. Equal values may be shown once. Whole data set: some 2,900 compounds, median “IRF Lucia reporter activity, fold change vs agonist alone” near 0.9, cut for the highest 2% near 2.8. Some of the results follow.
# What was measured:
# RAW-Dual [1] = test: IRF Lucia reporter activity, fold change vs agonist alone; higher = enhanced IRF activity; conditions: cytotoxicity flag (confluency mask): not cytotoxic, agonist: MPLA (TLR4) […]
# Summary of the method: (§1)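 Library stock was pin-tooled at 50 nL into 384-well plates of RAW-Dual macrophages (50,000 cells/well, DMEM), followed 1 h later by a PRR agonist, and the cells were kept at 37 °C, 5% CO2. Supernatant collected after 20 hours was read for IRF by QuantiLuc luminescence and for NF-κB by QuantiBlue absorbance at 620 nm. Reporter activity is fold change over agonist-alone wells, and a well counted as cytotoxic when its IncuCyte confluency was below 70% of agonist controls in both mask sets.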
# RAW-Dual [2] = test: IRF Lucia reporter activity, fold change vs agonist alone; cytotoxicity flag (confluency mask): not cytotoxic; higher = enhanced IRF activity
# Summary of the method: as §1
# RAW-Dual [3] = test: IRF Lucia reporter activity, fold change vs agonist alone; cytotoxicity flag (confluency mask): cytotoxic (confluency <70% of control); higher = enhanced IRF activity
# Summary of the method: as §1
# [4] = agonist: 3'3'-cGAMP (STING) 10 ug/mL
# [5] = library stock concentration (final ~1000-fold dilution): 10 mM
compound,measurement,setting,value
NC(=O)CCC(N)C(=O)O (stereo not given),IRF Lucia reporter activity,RAW-Dual [1]; library stock concentration (final ~1000-fold dilution): L-Glutamine,1.25
C[N+]1(C)CCC(OC(=O)C(O)(c2ccccc2)C2CCCC2)C1 (stereo not given) (library stock concentration (final ~1000-fold dilution): 10 mM),IRF Lucia reporter activity,RAW-Dual [2]; [4],1.02
same,IRF Lucia reporter activity,RAW-Dual [2]; agonist: LPS (TLR4) 0.1 ug/mL,1.18
C[N+]1(C)CCC(OC(=O)C(O)(c2ccccc2)C2CCCC2)C1 (stereo not given),IRF Lucia reporter activity,RAW-Dual [1]; [5],1.09
COc1c2occc2cc2ccc(=O)oc12 (library stock concentration (final ~1000-fold dilution): 10 mM),IRF Lucia reporter activity,RAW-Dual [2]; [4],0.954
same,IRF Lucia reporter activity,RAW-Dual [2]; agonist: LPS (TLR4) 0.1 ug/mL,0.789
COc1c2occc2cc2ccc(=O)oc12,IRF Lucia reporter activity,RAW-Dual [1]; [5],0.887
CC(C)CC(N)=O,IRF Lucia reporter activity,RAW-Dual [1]; [5],0.951
CC(C)CC(N)=O (library stock concentration (final ~1000-fold dilution): 10 mM),IRF Lucia reporter activity,RAW-Dual [2]; [4],0.965
same,IRF Lucia reporter activity,RAW-Dual [2]; agonist: LPS (TLR4) 0.1 ug/mL,0.766
Cc1nccn1CC1CCc2c(c3ccccc3n2C)C1=O.Cl (stereo not given),IRF Lucia reporter activity,RAW-Dual [1]; [5],0.965
Cc1nccn1CC1CCc2c(c3ccccc3n2C)C1=O.Cl (stereo not given) (library stock concentration (final ~1000-fold dilution): 10 mM),IRF Lucia reporter activity,RAW-Dual [2]; [4],0.921
same,IRF Lucia reporter activity,RAW-Dual [2]; agonist: LPS (TLR4) 0.1 ug/mL,0.876
C=C1C(=O)OC2/C=C(\C)CC/C=C(\C)CCC12 (stereo not given) (library stock concentration (final ~1000-fold dilution): 10 mM),IRF Lucia reporter activity,RAW-Dual [2]; [4],0.0115
same,IRF Lucia reporter activity,RAW-Dual [2]; agonist: LPS (TLR4) 0.1 ug/mL,0.0201
C=C1C(=O)OC2/C=C(\C)CC/C=C(\C)CCC12 (stereo not given),IRF Lucia reporter activity,RAW-Dual [1]; [5],0.0253
CC(=O)OC1CC2(C)C(CC(O)C3C4(C)CCC(O)C(C)C4CCC32C)/C1=C(\CCC=C(C)C)C(=O)O (stereo not given) (library stock concentration (final ~1000-fold dilution): 10 mM),IRF Lucia reporter activity,RAW-Dual [2]; [4],0.902
same,IRF Lucia reporter activity,RAW-Dual [2]; agonist: LPS (TLR4) 0.1 ug/mL,1.31
CC(=O)OC1CC2(C)C(CC(O)C3C4(C)CCC(O)C(C)C4CCC32C)/C1=C(\CCC=C(C)C)C(=O)O (stereo not given),IRF Lucia reporter activity,RAW-Dual [1]; [5],1.01
Cc1nnc(C(=O)NC(C)(C)c2nc(C(=O)NCc3ccc(F)cc3)c(O)c(=O)n2C)o1 (library stock concentration (final ~1000-fold dilution): 10 mM),IRF Lucia reporter activity,RAW-Dual [2]; [4],1.01 and 1.06
same,IRF Lucia reporter activity,RAW-Dual [2]; agonist: LPS (TLR4) 0.1 ug/mL,1.34 and 0.978
COC(=O)c1ccc2c(c1)nc(NC(=O)c1ccccc1)n2CCCc1ccccc1 (library stock concentration (final ~1000-fold dilution): 10 mM),IRF Lucia reporter activity,RAW-Dual [2]; [4],0.992
same,IRF Lucia reporter activity,RAW-Dual [2]; agonist: LPS (TLR4) 0.1 ug/mL,1.27
CN1CCN(Cc2ccc(Nc3ncc(Cl)c(Nc4ccccc4S(=O)(=O)N(C)C)n3)cc2)CC1 (library stock concentration (final ~1000-fold dilution): 2 mM),IRF Lucia reporter activity,RAW-Dual [3]; [4],0.0995
same,IRF Lucia reporter activity,RAW-Dual [3]; agonist: LPS (TLR4) 0.1 ug/mL,0.0212
c1ccc(NCc2ccc(CNc3ccccn3)cc2)nc1,IRF Lucia reporter activity,RAW-Dual [1]; [5],1
c1ccc(NCc2ccc(CNc3ccccn3)cc2)nc1 (library stock concentration (final ~1000-fold dilution): 10 mM),IRF Lucia reporter activity,RAW-Dual [2]; [4],0.988
same,IRF Lucia reporter activity,RAW-Dual [2]; agonist: LPS (TLR4) 0.1 ug/mL,0.989
O=C(NC(C1CC1)C(F)(F)F)c1cc(-c2cnn3cc(-c4ccc(F)cc4)cnc23)cs1 (stereo not given) (library stock concentration (final ~1000-fold dilution): 10 mM),IRF Lucia reporter activity,RAW-Dual [2]; [4],0.0246
same,IRF Lucia reporter activity,RAW-Dual [2]; agonist: LPS (TLR4) 0.1 ug/mL,0.0248
CC(C)(C)C1NC(=O)OC2CCCC2OC/C=C/C(F)(F)c2nc3ccccc3nc2OC2CC(C(=O)NC3(C(=O)NS(=O)(=O)C4(C)CC4)CC3C(F)F)N(C2)C1=O (stereo not given),IRF Lucia reporter activity,RAW-Dual [1]; [5],0.932
CC(C)(C)C1NC(=O)OC2CCCC2OC/C=C/C(F)(F)c2nc3ccccc3nc2OC2CC(C(=O)NC3(C(=O)NS(=O)(=O)C4(C)CC4)CC3C(F)F)N(C2)C1=O (stereo not given) (library stock concentration (final ~1000-fold dilution): 10 mM),IRF Lucia reporter activity,RAW-Dual [2]; [4],0.867
same,IRF Lucia reporter activity,RAW-Dual [2]; agonist: LPS (TLR4) 0.1 ug/mL,1.1
CC(=O)OC1(C(C)=O)CCC2C3C=C(Cl)C4=CC(=O)C5CC5C4(C)C3CCC21C (stereo not given) (library stock concentration (final ~1000-fold dilution): 10 mM),IRF Lucia reporter activity,RAW-Dual [2]; [4],1.06
same,IRF Lucia reporter activity,RAW-Dual [2]; agonist: LPS (TLR4) 0.1 ug/mL,0.811
CC(=O)OC1(C(C)=O)CCC2C3C=C(Cl)C4=CC(=O)C5CC5C4(C)C3CCC21C (stereo not given),IRF Lucia reporter activity,RAW-Dual [1]; [5],0.878
CCN(CC)CC#CCOC(=O)C(O)(c1ccccc1)C1CCCCC1.Cl (stereo not given) (library stock concentration (final ~1000-fold dilution): 10 mM),IRF Lucia reporter activity,RAW-Dual [2]; [4],1
same,IRF Lucia reporter activity,RAW-Dual [2]; agonist: LPS (TLR4) 0.1 ug/mL,1.33
CCN(CC)CC#CCOC(=O)C(O)(c1ccccc1)C1CCCCC1.Cl (stereo not given),IRF Lucia reporter activity,RAW-Dual [1]; [5],1.47
O=C(O)Cc1ccc(-c2ccccc2)cc1 (library stock concentration (final ~1000-fold dilution): 10 mM),IRF Lucia reporter activity,RAW-Dual [2]; [4],0.985
same,IRF Lucia reporter activity,RAW-Dual [2]; agonist: LPS (TLR4) 0.1 ug/mL,0.941
O=C(O)Cc1ccc(-c2ccccc2)cc1,IRF Lucia reporter activity,RAW-Dual [1]; [5],1.01
CCCOc1ccc(S(=O)(=O)NCCC2CCCN2C)cc1-c1nc(=O)c2c([nH]1)c(CCC)nn2C (stereo not given),IRF Lucia reporter activity,RAW-Dual [1]; [5],1.27
CCCOc1ccc(S(=O)(=O)NCCC2CCCN2C)cc1-c1nc(=O)c2c([nH]1)c(CCC)nn2C (stereo not given) (library stock concentration (final ~1000-fold dilution): 10 mM),IRF Lucia reporter activity,RAW-Dual [2]; [4],0.655
same,IRF Lucia reporter activity,RAW-Dual [2]; agonist: LPS (TLR4) 0.1 ug/mL,0.969
